The text below walks through data of patent US20250179205A1.

Numbering of substitutions follows the chain as printed.

In assay [1] the target is T1, His-tagged human dimeric FAP (recombinant FAP_ECD) (human), Q12884. The assay is described as follows: method not stated; SPR as in Example 5.3.2 presumed.
The target of assay [2] is human fibroblast activation protein (huFAP) (human), Q12884. The assay can be described thus: flow cytometry, NIH/3T3-huFAP clone 19 cells, PE anti-human Fc F(ab')2. For orientation: A flow cytometer gives signals particle by particle.
Assay [3] concerns the target T1, His-tagged human dimeric FAP …. The assay is described as follows: SPR (Biacore T200), His-tagged dimeric huFAP ECD captured by anti-His, antibody as analyte, 1:1 fit (avidity). A general note: Surface plasmon resonance follows binding to a sensor surface in real time, without labels.

The term EC50 denotes the concentration needed to bring the measured effect to its halfway point. A low value points to higher potency in that assay. As usually defined, the koff is the rate constant with which the complex falls apart. Broadly, the kon is a measure of how fast the partners come together.

B1: P1AE0637 CD40 × FAP (28H1) (4 + 1) C-terminal crossFab fusion (bispecific antibody, human IgG1, kappa)
heavy 1: EVQLVESGGGLVQPGGSLRLSCAASGYSFTGYYIHWVRQAPGKGLEWVARVIPNAGGTSYNQKFKGRFTLSVDNSKNTAYLQMNSLRAEDTAVYYCAREGIYWWGQGTLVTVSSASTKGPSVFPLAPSSKSTSGGTAALGCLVEDYFPEPVTVSWNSGALTSGVHTFPAVLQSSGLYSLSSVVTVPSSSLGTQTYICNVNHKPSNTKVDEKVEPKSCDGGGGSGGGGSEVQLVESGGGLVQPGGSLRLSCAASGYSFTGYYIHWVRQAPGKGLEWVARVIPNAGGTSYNQKFKGRFTLSVDNSKNTAYLQMNSLRAEDTAVYYCAREGIYWWGQGTLVTVSSASTKGPSVFPLAPSSKSTSGGTAALGCLVEDYFPEPVTVSWNSGALTSGVHTFPAVLQSSGLYSLSSVVTVPSSSLGTQTYICNVNHKPSNTKVDEKV[no letters for human IgG1 Fc with changes]GGGGSGGGGSGGGGSGGGGSEIVLTQSPGTLSLSPGERATLSCRASQSVSRSYLAWYQQKPGQAPRLLIIGASTRATGIPDRFSGSGSGTDFTLTISRLEPEDFAVYYCQQGQVIPPTFGQGTKVEIKSSASTKGPSVFPLAPSSKSTSGGTAALGCLVKDYFPEPVTVSWNSGALTSGVHTFPAVLQSSGLYSLSSVVTVPSSSLGTQTYICNVNHKPSNTKVDKKVEPKSC
heavy 2: EVQLVESGGGLVQPGGSLRLSCAASGYSFTGYYIHWVRQAPGKGLEWVARVIPNAGGTSYNQKFKGRFTLSVDNSKNTAYLQMNSLRAEDTAVYYCAREGIYWWGQGTLVTVSSASTKGPSVFPLAPSSKSTSGGTAALGCLVEDYFPEPVTVSWNSGALTSGVHTFPAVLQSSGLYSLSSVVTVPSSSLGTQTYICNVNHKPSNTKVDEKVEPKSCDGGGGSGGGGSEVQLVESGGGLVQPGGSLRLSCAASGYSFTGYYIHWVRQAPGKGLEWVARVIPNAGGTSYNQKFKGRFTLSVDNSKNTAYLQMNSLRAEDTAVYYCAREGIYWWGQGTLVTVSSASTKGPSVFPLAPSSKSTSGGTAALGCLVEDYFPEPVTVSWNSGALTSGVHTFPAVLQSSGLYSLSSVVTVPSSSLGTQTYICNVNHKPSNTKVDEKVEPKSCDKTHTCPPCPAPEAAGGPSVFLFPPKPKDTLMISRTPEVTCVVVDVSHEDPEVKFNWYVDGVEVHNAKTKPREEQYNSTYRVVSVLTVLHQDWLNGKEYKCKVSNKALGAPIEKTISKAKGQPREPQVCTLPPSRDELTKNQVSLSCAVKGFYPSDIAVEWESNGQPENNYKTTPPVLDSDGSFFLVSKLTVDKSRWQQGNVFSCSVMHEALHNHYTQKSLSLSPG
light 1: DIQMTQSPSSLSASVGDRVTITCRSSQSLVHSNGNTFLHWYQQKPGKAPKLLIYTVSNRFSGVPSRFSGSGSGTDFTLTISSLQPEDFATYFCSQTTHVPWTFGQGTKVEIKRTVAAPSVFIFPPSDRKLKSGTASVVCLLNNFYPREAKVQWKVDNALQSGNSQESVTEQDSKDSTYSLSSTLTLSKADYEKHKVYACEVTHQGLSSPVTKSFNRGEC
light 2: EVQLLESGGGLVQPGGSLRLSCAASGFTFSSHAMSWVRQAPGKGLEWVSAIWASGEQYYADSVKGRFTISRDNSKNTLYLQMNSLRAEDTAVYYCAKGWLGNFDYWGQGTLVTVSSASVAAPSVFIFPPSDEQLKSGTASVVCLLNNFYPREAKVQWKVDNALQSGNSQESVTEQDSKDSTYSLSSTLTLSKADYEKHKVYACEVTHQGLSSPVTKSFNRGEC
In the case of B1, in assay [1], the Kd was 0.1 nM. This molecule also registered an EC50 in assay [2] of 10.5 nM. Besides, in assay [3], the Kd was 7.3 nM, the koff came out at 0.00205 s⁻¹ and the association rate constant (kon) was found to be 282000 M⁻¹ s⁻¹.

B2: P1AE0890 CD40 (VH2d/VL2a) × FAP (28H1) (4 + 1) C-terminal crossFab fusion (bispecific antibody, human IgG1, kappa)
heavy 1: EVQLLESGGGLVQPGGSLRLSCAASGYSFTGYYIHWVRQAPGKGLEWVGRVIPNAGGTSYGDSVKGRFTISVDNSKNTAYLQMNSLRAEDTAVYYCAREGIYWWGQGTTVTVSSASTKGPSVFPLAPSSKSTSGGTAALGCLVEDYFPEPVTVSWNSGALTSGVHTFPAVLQSSGLYSLSSVVTVPSSSLGTQTYICNVNHKPSNTKVDEKVEPKSCDGGGGSGGGGSEVQLLESGGGLVQPGGSLRLSCAASGYSFTGYYIHWVRQAPGKGLEWVGRVIPNAGGTSYGDSVKGRFTISVDNSKNTAYLQMNSLRAEDTAVYYCAREGIYWWGQGTTVTVSSASTKGPSVFPLAPSSKSTSGGTAALGCLVEDYFPEPVTVSWNSGALTSGVHTFPAVLQSSGLYSLSSVVTVPSSSLGTQTYICNVNHKPSNTKVDEKV[no letters for human IgG1 Fc with changes]GGGGSGGGGSGGGGSGGGGSEIVLTQSPGTLSLSPGERATLSCRASQSVSRSYLAWYQQKPGQAPRLLIIGASTRATGIPDRFSGSGSGTDFTLTISRLEPEDFAVYYCQQGQVIPPTFGQGTKVEIKSSASTKGPSVFPLAPSSKSTSGGTAALGCLVKDYFPEPVTVSWNSGALTSGVHTFPAVLQSSGLYSLSSVVTVPSSSLGTQTYICNVNHKPSNTKVDKKVEPKSC
heavy 2: EVQLLESGGGLVQPGGSLRLSCAASGYSFTGYYIHWVRQAPGKGLEWVGRVIPNAGGTSYGDSVKGRFTISVDNSKNTAYLQMNSLRAEDTAVYYCAREGIYWWGQGTTVTVSSASTKGPSVFPLAPSSKSTSGGTAALGCLVEDYFPEPVTVSWNSGALTSGVHTFPAVLQSSGLYSLSSVVTVPSSSLGTQTYICNVNHKPSNTKVDEKVEPKSCDGGGGSGGGGSEVQLLESGGGLVQPGGSLRLSCAASGYSFTGYYIHWVRQAPGKGLEWVGRVIPNAGGTSYGDSVKGRFTISVDNSKNTAYLQMNSLRAEDTAVYYCAREGIYWWGQGTTVTVSSASTKGPSVFPLAPSSKSTSGGTAALGCLVEDYFPEPVTVSWNSGALTSGVHTFPAVLQSSGLYSLSSVVTVPSSSLGTQTYICNVNHKPSNTKVDEKVEPKSCDKTHTCPPCPAPEAAGGPSVFLFPPKPKDTLMISRTPEVTCVVVDVSHEDPEVKFNWYVDGVEVHNAKTKPREEQYNSTYRVVSVLTVLHQDWLNGKEYKCKVSNKALGAPIEKTISKAKGQPREPQVCTLPPSRDELTKNQVSLSCAVKGFYPSDIAVEWESNGQPENNYKTTPPVLDSDGSFFLVSKLTVDKSRWQQGNVFSCSVMHEALHNHYTQKSLSLSPG
light 1: B1 light 1 with Q105G
light 2: B1 light 2
With B2, in assay [2], the EC50 is 30.4 nM.

B3: P1AE0889 CD40 (VH2a/VL2a) × FAP (28H1) (4 + 1) C-terminal crossFab fusion (bispecific antibody, human IgG1, kappa)
heavy 1: EVQLLESGGGLVQPGGSLRLSCAASGYSFTGYYIHWVRQAPGKGLEWVGRVIPNAGGTSYNQKFKGRFTISVDNSKNTAYLQMNSLRAEDTAVYYCAREGIYWWGQGTTVTVSSASTKGPSVFPLAPSSKSTSGGTAALGCLVEDYFPEPVTVSWNSGALTSGVHTFPAVLQSSGLYSLSSVVTVPSSSLGTQTYICNVNHKPSNTKVDEKVEPKSCDGGGGSGGGGSEVQLLESGGGLVQPGGSLRLSCAASGYSFTGYYIHWVRQAPGKGLEWVGRVIPNAGGTSYNQKFKGRFTISVDNSKNTAYLQMNSLRAEDTAVYYCAREGIYWWGQGTTVTVSSASTKGPSVFPLAPSSKSTSGGTAALGCLVEDYFPEPVTVSWNSGALTSGVHTFPAVLQSSGLYSLSSVVTVPSSSLGTQTYICNVNHKPSNTKVDEKV[no letters for human IgG1 Fc with changes]GGGGSGGGGSGGGGSGGGGSEIVLTQSPGTLSLSPGERATLSCRASQSVSRSYLAWYQQKPGQAPRLLIIGASTRATGIPDRFSGSGSGTDFTLTISRLEPEDFAVYYCQQGQVIPPTFGQGTKVEIKSSASTKGPSVFPLAPSSKSTSGGTAALGCLVKDYFPEPVTVSWNSGALTSGVHTFPAVLQSSGLYSLSSVVTVPSSSLGTQTYICNVNHKPSNTKVDKKVEPKSC
heavy 2: B2 heavy 2 with G61N, D62Q, S63K, V64F, G289N, D290Q, S291K, V292F
light 1: B1 light 1 with Q105G
light 2: B1 light 2
B3: the EC50 in assay [2] came to 24.3 nM.
